Reference: US20060094649A1, “Hla-a1,-a2,-a3,-a24,-b7, and-b44 tumor associated antigen peptides and compositions” (priority 2002, published 2006)

Test system: tumor cell lines expressing the TAA
Experiment: CTL recognition of endogenous targets (tumor cell lines expressing the TAA)
Format: cell-based, human
Settings: SW480 (A3−, CEA+) and SW403 (A3+, CEA+); only wells positive for peptide-pulsed targets

Structure (SMILES): CC[C@H](C)[C@H](NC(=O)CNC(=O)[C@H](Cc1ccccc1)NC(=O)[C@@H](NC(=O)[C@@H](N)C(C)C)C(C)C)C(=O)N[C@@H](CC(C)C)C(=O)N[C@H](C(=O)N[C@@H](CCCCN)C(=O)N[C@@H](CCCNC(=N)N)C(=O)O)[C@@H](C)CC [compound 57]
- Number of CTL inductions yielding positive responses/total tested, Tumor target cell line: 0/1
